According to article PMC12136788:
The other results are listed elsewhere or left out.

B1: chr3:154315110:154315224:-|CDS|ENSG00000174953|unk|FALSE|unique (ssRNA)
RNA: GGGAGUUCUACAGUCCGACGAUCUCAGAGAACAAACUUGACAUCCAGGAAAAGAAGUUGAUAAAUCAAGAAAAAAAAAUGUUUAGAAUCAGGAACAGAUCAUAUAUUGACCGAGAUUCUGAGUAUCUCUUGCAAGAAAAUGAACAACAGAGGAUUGAGCAUCA
B2: chr12:24812577:24812678:-|3pUTR|ENSG00000060982|msi1|total|mutant (ssRNA)
RNA: GGGAGUUCUACAGUCCGACGAUCAUCCAAAGGAGCUUUUUCCUUAUUCUGUCAAGCAUUGAGAUCUUCUUCAGCUUUCAAUGCCGUUGCUAAAUACAAAUAAUGCUACCCGGCCGUGACUAAAUACCGCAAACACUUCAUCAGCAACAGAGGAUUGAGCAUCA
B3: chr5:139390591:139392033:-|three_prime_utr|ENSG00000228672|control|control|control (ssRNA)
RNA: GGGAGUUCUACAGUCCGACGAUCAGGGCGUGGUGUGGUGUGGUGUGUGGGUGUGUGUAUAUGUGUAUAUGCGGGCAAGCAAAUAGGGAAAGUGAGGCAUCCCUGGGCUUGUCCCCAGGAGCCGAUCAGAGGAGGUGCUGUGGCCAACAGAGGAUUGAGCAUCA
B4: chr22:39522180:39522281:+|CDS|ENSG00000128272|msi1|FALSE|bound_elsewhere (ssRNA)
RNA: GGGAGUUCUACAGUCCGACGAUCGCUUACGUUGCCAUGAUCCCUCAGUGCAUAAAGGAGGAAGACACCCCUUCAGAUAAUGAUAGUGGCAUCUGUAUGAGCCCAGAGUCCUAUCUGGGGUCUCCUCAGCACAGCCCCUCUACCCAACAGAGGAUUGAGCAUCA
B5: chr4:185586528:185586629:-|3pUTR|ENSG00000154556|msi1|total|mutant (ssRNA)
RNA: GGGAGUUCUACAGUCCGACGAUCAUCCAUAUGAUAUGUUGUACAUUUUAUGGAAAUGUAACCGAAUCUCACACAUUAUUUUACCGAAACCGAGUACAGAAGCAUCACAAGUAUUAAAGUUGGUUUCCGCAAGGAUCCGGAUUACAACAGAGGAUUGAGCAUCA
B6: chr22:29555535:29555644:-|3pUTR|ENSG00000184117|unk|FALSE|unique (ssRNA)
RNA: GGGAGUUCUACAGUCCGACGAUCUUCCUCAUCUCAAGGCCACCAGUCCCCAGUUAUCACCCUUGGAAAUCCUCUGUUUAGCUUAGUUGCACAAAAGGUAGUAUGUCCAGUGGCUAGAGGUGGGGUGGGAAGAGAGGAGGCCAGCAACAGAGGAUUGAGCAUCA
B7: chr17:57839567:57839672:-|3pUTR|ENSG00000181610|unk|total|mutant (ssRNA)
RNA: GGGAGUUCUACAGUCCGACGAUCGGGUUGUCACAAAGCUCAGUAUCAUGGUUUGACAGAAGCAGUUAUGUGAACUUUUAUGUCCGGACAUUACUAAAUAAAGAAUUCCCCCGCUGCUUAUAAAGUAAAUUUACUUUGAAUUGUCAACAGAGGAUUGAGCAUCA
B8: chr5:123575802:123575904:+|CDS|ENSG00000151292|unk|FALSE|unique (ssRNA)
RNA: GGGAGUUCUACAGUCCGACGAUCACCUGAGAACUUCUUAAUAGGACGACCAGGAAACAAAACCCAGCAAGUUAUUCACAUUAUAGAUUUUGGUUUGGCAAAGGAAUAUAUUGAUCCGGAGACAAAGAAACACAUACCAUACAGCAACAGAGGAUUGAGCAUCA
B9: chr2:227551976:227552087:+|CDS|ENSG00000173744|unk|FALSE|bound_elsewhere (ssRNA)
RNA: GGGAGUUCUACAGUCCGACGAUCUCCAUGAGCAUGCCCACAGGAUUCGGCACUCCUGCUCCCUACAGUCUUCCCACCAGCUUUAGUGGCAGCUUUCAGCAGCCUGCCUUUCCAGCCCAAGCAGCUUUCCCUCAACAGACAGCUCAACAGAGGAUUGAGCAUCA
B10: chr10:33178043:33178144:-|3pUTR|ENSG00000099250|msi1|FALSE|unique (ssRNA)
RNA: GGGAGUUCUACAGUCCGACGAUCAAAUUGGAUUGAGAAUGCCUUUUGUUUCCAGGAAAAUAUUGAUCACCAUGAAAGAAGAAUAGUUUUUUGUCCCCAGAGACAUUCAUUUAGUUGAUAUAAUCCUACCAGAAGGAAAGCACUCAACAGAGGAUUGAGCAUCA
B11: ENSG00000070961:be:win_1451|CDS|ENSG00000070961|bound_else_gene|NA|bound_elsewhere_windowed (ssRNA)
RNA: GGGAGUUCUACAGUCCGACGAUCGAAUGACAGUCGUUCAAGCUUACAUAAAUGAAAAACAUUAUAAAAAGGUUCCUGAACCAGAAGCUAUUCCACCAAAUAUUUUGUCCUAUCUUGUAACAGGAAUUUCUGUGAAUUGUGCUUCAACAGAGGAUUGAGCAUCA
B12: chr2:75053604:75053755:-|CDS|ENSG00000115353|control|control|control (ssRNA)
RNA: GGGAGUUCUACAGUCCGACGAUCCUGUGUGACUGUGCUGAUCUACUUCCUCCCCCUGCUGGUGAUUGGCUAUGCAUACACCGUAGUGGGAAUCACACUAUGGGCCAGUGAGAUCCCCGGGGACUCCUCUGACCGCUACCACGACAACAGAGGAUUGAGCAUCA
B13: chr2:24789727:24790410:-|three_prime_utr|ENSG00000184924|control|control|control (ssRNA)
RNA: GGGAGUUCUACAGUCCGACGAUCUUAAUAAGUUCAAGUGGGGAAGGUGGGAGAGCAGUAUUGUCUGGGGAUCAUUGCUCAAAUAGAAGAUUUGGUUAGACUCUCCUGUGGGGCUCAAGGAAACUCCCUUCCAGUCACUCGGGUCAACAGAGGAUUGAGCAUCA
B14: chrX:141908562:141908663:+|CDS|ENSG00000155495|unk|FALSE|unique (ssRNA)
RNA: GGGAGUUCUACAGUCCGACGAUCUCCUCGUUACGAAUUCCUGUGGGGUCCAAGAGCUCAUUCAGAAGUCAUUAAGAGGAAAGUAGUAGAGUUUUUGGCCAUGCUAAAGAAUACCGUCCCUAUUACCUUUCCAUCCUCUUACAACAACAGAGGAUUGAGCAUCA
B15: chr12:6965580:6965681:-|3pUTR|ENSG00000215021|unk|FALSE|unique (ssRNA)
RNA: GGGAGUUCUACAGUCCGACGAUCGUCAUUAUCUAUCUUUUUUUUCCUACAGUGACAGCCUCAUCAAGGGUAAGAAAUGAGCCUAGUCACCAAGAACUCCACCCCCAGAGGAAGUGGAUCUGCUUCUCCAGUUUUUGAGGAGCCCAACAGAGGAUUGAGCAUCA
B16: chr4:173248057:173248158:+|CDS|ENSG00000109586|unk|FALSE|bound_elsewhere (ssRNA)
RNA: GGGAGUUCUACAGUCCGACGAUCUUCAAACCUGUGGUACCAUGGCCUCAUGUUGAAGGAGUAGAAGUGGACUUAGAGUCUAUUAGAAGAAUAAACAAGGCCAAAAAUGAACAAGAGCACCAUGCUGGAGGAGAUUCCCAGAAACAACAGAGGAUUGAGCAUCA
B17: chr16:57758216:57758909:-|three_prime_utr|ENSG00000140859|control|control|control (ssRNA)
RNA: GGGAGUUCUACAGUCCGACGAUCGGGCCUGAAGCUGGGCCCUCACUGGCCUGUCCCUGCUGCAGCGCCAGGACCCCCGGAGGUAGAGGCGAGAGUGGAGGCUCUUCUUCUGCCCCGUCUCCCCUCAAAGAUGAGAAACAUGUUCAACAGAGGAUUGAGCAUCA
B18: chr8:52158897:52159109:-|CDS|ENSG00000147488|control|control|control (ssRNA)
RNA: GGGAGUUCUACAGUCCGACGAUCCCAGAGCCCUGGCCGUGCCAGCUCUUAUAGCUACGGUCAAUGUAGUGAAGACACCCACAUAGCAGCAGCUGCUGCCAUCCUGAACCUUUCCACCCGCUGCAGGGAAGCCACAGACAUCCUCAACAGAGGAUUGAGCAUCA
B19: chr7:137014887:137014989:+|CDS|ENSG00000181072|unk|total|mutant (ssRNA)
RNA: GGGAGUUCUACAGUCCGACGAUCGCUACUUGGCUACUGAUCCGAGAACGCAAAAUGAAUAACUCAACAAACUCCUCUAACAACCGCCUGGCUCUUACAAGUCCUUAUAAGACAUUUGAAGUGGUGUUUAUUGUCCUGGUGGCUCAACAGAGGAUUGAGCAUCA
B20: chr1:173734013:173734119:+|CDS|ENSG00000076321|unk|total|mutant (ssRNA)
RNA: GGGAGUUCUACAGUCCGACGAUCCAUUGACGAGAGGGCUAUGGAAUUACUGAUUGACUUUGCGUAUACCUCCCAGAUAACAGCCGAAGAGGGCAAUGUUCAGACUCUUCUGCCAGCUGCUUGCCUCCUCCAGCUGGCAGAAAUCAACAGAGGAUUGAGCAUCA
B21: chr10:75397829:75398748:-|three_prime_utr|ENSG00000165655|control|control|control (ssRNA)
RNA: GGGAGUUCUACAGUCCGACGAUCCACUUUCACCUCCCCACCCAAACUUUAUAAAAGUUGAAAAAAUAUCAUUUGACUUUUUAUAGAAAAAAAAAGGAAAAAAUAAUUGAGAAAGUGUUCAUCUGAGGACUGCAUCGGUGGACACAACAGAGGAUUGAGCAUCA
B22: chr3:112140897:112141281:-|three_prime_utr|ENSG00000172139|control|control|control (ssRNA)
RNA: GGGAGUUCUACAGUCCGACGAUCACUUUUUGCAAAAUUUCCUUGAUUUAAAAUAUUUGUUAUUUUAAAUAUACAAAACAUUUUAGAAAAUCUUAGAGUAAAUUUUAGUCUUAAAGCCAGAAAAUAAGUUUAUAGCCAUCUAGACAACAGAGGAUUGAGCAUCA

molecular target: MSI1 full-length (mouse, UniProt Q61474 1-362); assay: nsRBNS (natural sequence RNA bind-n-seq); RBNS binding buffer (assumed for nsRBNS): 25 mM Tris pH 7.5, 150 mM KCl, 3 mM MgCl2, 0.01% Triton X-100, 500 ug/ml BSA, 20 U/ml SUPERase-In, 4 C; UNK is unkempt and MSI1 is Musashi-1; names of the RNAs are library labels; protein concentration not given here; high values mean tight binding
Chain of UniProt Q61474 (Q61474 whole entry): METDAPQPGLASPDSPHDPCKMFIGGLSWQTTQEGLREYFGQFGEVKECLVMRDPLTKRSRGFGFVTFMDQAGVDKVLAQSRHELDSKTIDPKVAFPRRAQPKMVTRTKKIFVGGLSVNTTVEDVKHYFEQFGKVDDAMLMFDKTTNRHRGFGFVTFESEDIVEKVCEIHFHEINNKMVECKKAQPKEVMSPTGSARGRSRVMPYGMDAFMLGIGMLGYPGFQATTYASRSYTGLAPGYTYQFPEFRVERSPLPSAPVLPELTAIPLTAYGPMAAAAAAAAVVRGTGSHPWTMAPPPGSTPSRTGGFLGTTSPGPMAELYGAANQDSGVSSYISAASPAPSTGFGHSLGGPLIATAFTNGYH

Row | Binder | binding signal
1 | B1 | 0.552 enrichment R
2 | B2 | 0.203 enrichment R
3 | B3 | 0.676 enrichment R
4 | B4 | 0.532 enrichment R
5 | B5 | 0.725 enrichment R
6 | B6 | 4.79 enrichment R
7 | B7 | 0.56 enrichment R
8 | B8 | 2.5 enrichment R
9 | B9 | 0.91 enrichment R
10 | B10 | 1.58 enrichment R
11 | B11 | 0.328 enrichment R
12 | B12 | 0.588 enrichment R
13 | B13 | 0.626 enrichment R
14 | B14 | 0.62 enrichment R
15 | B15 | 1.07 enrichment R
16 | B16 | 6.27 enrichment R
17 | B17 | 0.392 enrichment R
18 | B18 | 0.862 enrichment R
19 | B19 | 0.305 enrichment R
20 | B20 | 0.492 enrichment R
21 | B21 | 0.554 enrichment R
22 | B22 | 14.9 enrichment R
